Experimental data: PubChem BioAssay AID624417 (National Center for Advancing Translational Sciences (NCATS), 2012)
Hit rate of the full screen: of about 410,000 compounds, about 6,400 (1.6%) were called active. The inconclusive results got no clear call from the source; some entries with a clear call stand among them for comparison. The call rests on the fitted dose curve; in most records, active means well fitted inhibition curve with a large enough effect; inconclusive means small, poorly fitted or top-dose-only effect; inactive means no such curve, though single readings can be large or run the other way. Potencies of inconclusive entries are left out as doubtful fits.

biological target: Glucagon-like peptide 1 receptor (Homo sapiens) (UniProt P43220); test: qHTS of GLP-1 Receptor Inverse Agonists (Inhibition Mode); details: HEK293 GLP-1R CRE-luciferase, luminescence, 24 h, GLP-1R form is constitutively active; series mostly up to 38.3 µM; further: nearly all actives have a fitted effect of over 55% in size
Sequence of UniProt P43220 (P43220 whole entry, looked up): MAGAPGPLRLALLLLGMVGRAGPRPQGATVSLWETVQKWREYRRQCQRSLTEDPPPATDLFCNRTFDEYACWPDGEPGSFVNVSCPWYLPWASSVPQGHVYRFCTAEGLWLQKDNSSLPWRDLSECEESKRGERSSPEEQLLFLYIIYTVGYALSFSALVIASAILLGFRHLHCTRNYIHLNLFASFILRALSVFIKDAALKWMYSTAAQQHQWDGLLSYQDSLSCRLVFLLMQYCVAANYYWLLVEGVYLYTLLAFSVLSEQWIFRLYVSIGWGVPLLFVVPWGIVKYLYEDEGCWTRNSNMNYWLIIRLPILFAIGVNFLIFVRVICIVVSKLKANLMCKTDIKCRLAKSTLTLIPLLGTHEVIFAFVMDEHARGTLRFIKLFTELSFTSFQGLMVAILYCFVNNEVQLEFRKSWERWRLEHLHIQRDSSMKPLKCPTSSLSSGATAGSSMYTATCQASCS
How it was run: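 Cells are plated, allowed 12 hours at 37 deg C, then treated with compounds for 24 hr before luciferase detection reagent is added and luminescence is read after 12 min at room temperature. The HEK293 line carries constitutively active GLP-1R with a cAMP-responsive reporter.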
Potency means the concentration at half of the fitted maximal effect; tags describe the fitted curve by direction and shape.

Row | SMILES | Potency
1 | COc1ccc(C(N)=S)cc1 | inactive
2 | COc1ccc(CCN2C(=O)c3oc4ccc(F)cc4c(=O)c3C2c2ccc(C(C)(C)C)cc2)cc1 (stereo not drawn) | inactive
3 | Cc1cccc(C(=O)N[C@H](C(=O)Nc2nc3ccccc3[nH]2)C(C)C)c1 | inconclusive [inhibitor, full curve, poor fit]
4 | COC(=O)CNC(c1ccccc1)c1cc(Br)ccc1N (stereo not drawn) | inconclusive [inhibitor, single point]
5 | CCOC(=O)c1ccc(NC(=O)c2cc(OC)c(OC)c(OC)c2Br)cc1 | inconclusive [inhibitor, single point]
6 | O=C(CCl)NCc1c(Cl)cccc1-n1cccc1 | inconclusive [inhibitor, partial curve, poor fit]
7 | CCn1c2ccccc2c2cc(/C=N/NC(=O)c3ccncc3)ccc21 | inconclusive [inhibitor, full curve, poor fit]
8 | COc1ccc(N=[N+]([O-])c2ccc(OC)cc2)cc1 | inactive
9 | CC1=NN(C(N)=S)C(=O)C1N=Nc1ccccc1C (stereo not drawn) | inconclusive [inhibitor, full curve, poor fit]
10 | COc1ccc(OC)c(C(=O)NC2CC(C)(C)Cc3c2cnn3-c2ccccc2)c1 (stereo not drawn) | inconclusive [inhibitor, partial curve, poor fit]
11 | Cc1ccc(-n2cc(CN(C)Cc3ncc[nH]3)c(-c3cccc(C)c3)n2)cc1 | inconclusive [inhibitor, partial curve, poor fit]
12 | CCc1ccc(C(=O)COC(=O)C(Cc2c[nH]c3ccccc23)NC(=O)c2ccc(Br)cc2)cc1 (stereo not drawn) | inconclusive [inhibitor, single point]
13 | COc1ccccc1N1CCN(c2ncnc3c2cnn3C)CC1 | inactive
14 | CCCSc1nc(C)cc(C)c1S(=O)(=O)c1ccccc1C | active: 8.91 µM
15 | CC(C)(C)c1ccc(OCc2ccc(C(=O)N3CCOCC3)o2)cc1 | inconclusive [inhibitor, single point]
16 | O=C(CSCC(=O)N1CCCc2ccccc21)Nc1nc(-c2ccccc2)cs1 | inconclusive [inhibitor, partial curve, poor fit]
17 | CC(C)=CCC12Oc3cc(O)ccc3C1(O)Oc1cc(O)c([C@H]3C=C(C)CC(c4ccc(O)cc4O)[C@H]3C(=O)c3ccc(O)cc3O)c(O)c1C2=O (stereo partly drawn) | inconclusive [inhibitor, partial curve, poor fit]
18 | CCC1=Nc2cc(C(=O)N3CCCCC3)ccc2Sc2ccc(C)cc21 | inconclusive [inhibitor, single point]
19 | COc1ccccc1NS(=O)(=O)c1ccc2oc(SCc3ccc(F)cc3)nc2c1 | inconclusive [inhibitor, partial curve, poor fit]
20 | Cn1c(=O)c2c(ncn2CC(O)CNc2ccc(Cl)cc2)n(C)c1=O (stereo not drawn) | inactive
21 | C=CCNc1nc(C(=O)OCC(=O)c2ccccc2)cs1 | inconclusive [inhibitor, single point]

Row | SMILES | Potency
22 | COc1ccc(S(=O)(=O)N(CCc2ccccc2)CC(=O)Nc2cccc(OC)c2)cc1 | inconclusive [inhibitor, single point]
23 | CCOC(=O)c1cccc(NC(=O)C2CCN(S(=O)(=O)c3ccc4c(c3)oc(=O)n4C)CC2)c1 | inactive
24 | CCOc1ccc2nc(N3CCC(C(=O)N4CCN(C(=O)c5ccco5)CC4)CC3)sc2c1 | inactive
25 | COc1cccc(C(=O)N(Cc2cc3cc(C)ccc3[nH]c2=O)CC2CCCO2)c1 (stereo not drawn) | inactive
26 | CCCc1cc(-c2n[nH]c(=S)n2CC(C)C)cs1 | inactive
27 | CC1=NN(c2ccc(F)cc2)C(=O)C1C(c1cccc(O)c1)c1c(C)[nH]n(-c2ccc(F)cc2)c1=O (stereo not drawn) | inconclusive [inhibitor, full curve, poor fit]
28 | CCOc1ccccc1-n1nnc(-c2nc(-c3ccccc3)no2)c1N | inactive
29 | Cc1c(C(=O)NCc2ccc3c(c2)OCO3)sc(=O)n1Cc1ccc(-c2ccccc2)cc1 | inconclusive [inhibitor, single point]
30 | CCOc1ccc(C2=NC(c3cccs3)=Nc3ccc(C(C)C)cc3N2)cc1 | inconclusive [inhibitor, single point]
31 | COc1cc(/C=N/Nc2nc(Nc3ccc(C)cc3)nc(-n3nc(C)cc3C)n2)cc(OC)c1OC | inconclusive [inhibitor, partial curve, poor fit]
32 | CCOC(=O)c1c(NC(=O)c2ccc(S(=O)(=O)N(CCOC)CCOC)cc2)sc2c1CC(C)(C)NC2(C)C | inconclusive [inhibitor, partial curve, poor fit]
33 | N#Cc1c(OCC(=O)c2ccccc2)nc2c(c1-c1ccco1)CCc1ccccc1-2 | inconclusive [inhibitor, partial curve, poor fit]
34 | O=C(CN1CCN(CC(=O)Nc2ccccc2Cl)CC1)Nc1ccc2c(c1)OCCO2 | inconclusive [inhibitor, partial curve]
35 | CCN(CC)c1cc2c(cc1F)c(=O)c(S(=O)(=O)c1cc(C)ccc1C)cn2Cc1ccccc1 | inactive
36 | CCCCCCCN1CCC(=O)N([C@H](CO)Cc2ccccc2)CC1 | inconclusive [inhibitor, partial curve, poor fit]
37 | O=C(NCc1cccs1)c1nc2c(nnn2Cc2ccccc2Cl)c(=O)[nH]1 | inconclusive [inhibitor, full curve, poor fit]
38 | COc1ccc2cc3cc(C(=O)NCc4ccc5c(c4)OCO5)oc3nc2c1 | inactive
39 | OCCC1CN(Cc2cnc(-c3cccc4ccccc34)nc2)CCN1C1CCCCC1 (stereo not drawn) | inconclusive [inhibitor, partial curve, poor fit]
40 | O=C1CC(c2ccc(F)cc2)c2cc3c(cc2N1)CCC3 (stereo not drawn) | inconclusive [inhibitor, single point]
41 | Cc1cc(C)cc(NC(=O)c2ccc(NC3=NC4CS(=O)(=O)CC4S3)cc2)c1 (stereo not drawn) | inconclusive [inhibitor, single point]
42 | CC(C)CN(C(=O)COC(=O)Cc1ccc(Cl)cc1)c1c(N)n(Cc2ccccc2)c(=O)[nH]c1=O | inconclusive [inhibitor, single point]

Row | SMILES | Potency
43 | CC(C)OCc1c(C(=O)Nc2nccs2)oc2ccccc12 | inconclusive [inhibitor, partial curve, poor fit]
44 | CCOc1ccc(NS(=O)(=O)c2cc(C(=O)NCC3CCCO3)ccc2Cl)cc1 (stereo not drawn) | inconclusive [inhibitor, full curve, poor fit]
45 | CC(C)(C)CC(C)(C)NC(=O)CSCC(=O)Nc1ccc2ccccc2c1 | inconclusive [inhibitor, single point]
46 | O=C(CNC(=O)c1cccs1)N/N=C/c1ccco1 | inactive
47 | Cc1ccc(C)c(Nc2nc(-c3cccnc3)cs2)c1 | inconclusive [inhibitor, partial curve, poor fit]
48 | COc1ccc(-c2nc3sc(CCNC(=O)c4cc(Cl)ccc4OC)c(C)n3n2)cc1 | inconclusive [inhibitor, single point]
49 | Cc1ccc(-n2c(C)cc(C(=O)CN3CCOCC3)c2C)cc1C | inconclusive [inhibitor, single point]
50 | CC1CN(S(=O)(=O)c2ccc(C(=O)NCCCn3ccnc3)cc2)CC(C)O1 (stereo not drawn) | inconclusive [inhibitor, full curve]
51 | O=C(c1cccnc1)N1N=C(C2CC2)CC1(O)C(F)(F)F (stereo not drawn) | inconclusive [inhibitor, full curve, poor fit]
52 | COC(=O)c1ccc(NC(=O)C(C)N2Cc3ccccc3C2=O)cc1 (stereo not drawn) | inactive
53 | C/C=C/C=C/C(=O)N1CC2(CC(c3cccc(NC(=O)/C=C/C)c3)=NO2)C[C@@H]1C(N)=O (stereo partly drawn) | inactive
54 | Cc1ccc(C(=O)n2c3ccccc3c3ccccc32)cc1 | inconclusive [inhibitor, partial curve, poor fit]
55 | Cc1ccc(/C(N)=N/OC(=O)C(C)c2ccc([N+](=O)[O-])cc2)cc1 (stereo not drawn) | inconclusive [inhibitor, single point]
56 | CCCCCCCCN1C(=O)[C@H](CC(=O)N2CCSCC2)C[C@@]2(C(=O)OC)CC(C)(C)CC=C12 | inconclusive [inhibitor, partial curve, poor fit]
57 | O=C(NC(NC(=S)Nc1ccccc1O)C(Cl)(Cl)Cl)c1ccco1 (stereo not drawn) | inconclusive [inhibitor, partial curve, poor fit]
58 | Cc1ccc(C(=O)c2sc3nc4c(cc3c2N)CCC4)cc1 | inactive
59 | O=C(Nc1ccc(Cl)cc1)Nc1ccccc1CC[N+](=O)[O-] | inconclusive [inhibitor, partial curve, poor fit]
60 | CCC1=Nc2cc(C(=O)NC3CCCC3)ccc2Sc2ccc(Cl)cc21 | inconclusive [inhibitor, full curve, poor fit]
61 | COc1ccnc2c1c(=O)n(Cc1ccc(Cl)cc1Cl)c(=O)n2C | inactive
62 | COc1cc(CNCCSc2nnnn2C)ccc1OCc1ccccc1 | inconclusive [inhibitor, single point]
63 | CN1CCN(CCCNC(=O)c2cc3c(-c4ccc(Cl)cc4)nn(C)c3s2)CC1 | inconclusive [inhibitor, single point]
